# In the supplement of paper PMC8728848:
# The other results are listed elsewhere or left out.
# How the values were obtained:
# Assay in all cases: glycan array binding signal (z-score within array); higher = stronger binding
# Conditions in all cases: glycan notation: IUPAC condensed, linker removed
# [1] = target: Fuc(a1-2)Gal6S(b1-3)GlcNAc
# Method in brief: (§1)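 Glycan array data were curated from 3228 arrays in the Consortium for Functional Glycomics database and kept only where the protein sequence was available. Glycan names were converted to IUPAC-condensed notation, and columns mapping to the same glycan were averaged. The binding signal is a within-array Z-score, averaged across arrays of the same protein sequence at different concentrations or buffers and across linkers. Negative Z-scores can be read as non-binding.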
# [2] = target: Fuc(a1-2)Gal6S(b1-3)GlcNAc6S
# Method in brief: as §1
# Fuc(a1-2)Gal6S(b1-4)Glc = target: Fuc(a1-2)Gal6S(b1-4)Glc
# Method in brief: as §1
# [3] = target: Fuc(a1-2)Gal6S(b1-4)Glc6S
# Method in brief: as §1
# Fuc(a1-2)[Gal(a1-3)]Gal = target: Fuc(a1-2)[Gal(a1-3)]Gal
# Method in brief: as §1
# [4] = target: Fuc(a1-2)[Gal(a1-3)]Gal(b1-3)GalNAc
# Method in brief: as §1
# [5] = target: Fuc(a1-2)[Gal(a1-3)]Gal(b1-3)GalNAc(b1-3)Gal(a1-4)Gal(b1-4)Glc
# Method in brief: as §1
# [6] = target: Fuc(a1-2)[Gal(a1-3)]Gal(b1-3)GlcNAc
# Method in brief: as §1
# [7] = target: Fuc(a1-2)[Gal(a1-3)]Gal(b1-3)GlcNAc(b1-2)Man(a1-3)[Fuc(a1-2)[Gal(a1-3)]Gal(b1-3)GlcNAc(b1-2)Man(a1-6)]Man(b1-4)GlcNAc(b1-4)GlcNAc
# Method in brief: as §1
# [8] = target: Fuc(a1-2)[Gal(a1-3)]Gal(b1-3)GlcNAc(b1-2)Man(a1-3)[Fuc(a1-2)[Gal(a1-3)]Gal(b1-3)GlcNAc(b1-2)Man(a1-6)]Man(b1-4)GlcNAc(b1-4)[Fuc(a1-6)]GlcNAc
# Method in brief: as §1
# [9] = target: Fuc(a1-2)[Gal(a1-3)]Gal(b1-3)GlcNAc(b1-3)GalNAc
# Method in brief: as §1
# [10] = target: Fuc(a1-2)[Gal(a1-3)]Gal(b1-3)GlcNAc(b1-6)GalNAc
# Method in brief: as §1
# [11] = target: Fuc(a1-2)[Gal(a1-3)]Gal(b1-4)Glc
# Method in brief: as §1
# [12] = target: Fuc(a1-2)[Gal(a1-3)]Gal(b1-4)GlcNAc
# Method in brief: as §1
# [13] = target: Fuc(a1-2)[Gal(a1-3)]Gal(b1-4)GlcNAc(b1-2)Man
# Method in brief: as §1
# [14] = target: Fuc(a1-2)[Gal(a1-3)]Gal(b1-4)GlcNAc(b1-2)Man(a1-3)[Fuc(a1-2)[Gal(a1-3)]Gal(b1-4)GlcNAc(b1-2)Man(a1-6)]Man(b1-4)GlcNAc(b1-4)GlcNAc
# Method in brief: as §1
# [15] = target: Fuc(a1-2)[Gal(a1-3)]Gal(b1-4)GlcNAc(b1-2)Man(a1-3)[Fuc(a1-2)[Gal(a1-3)]Gal(b1-4)GlcNAc(b1-2)Man(a1-6)]Man(b1-4)GlcNAc(b1-4)[Fuc(a1-6)]GlcNAc
# Method in brief: as §1
# [16] = target: Fuc(a1-2)[Gal(a1-3)]Gal(b1-4)GlcNAc(b1-3)GalNAc
# Method in brief: as §1
# [17] = target: Fuc(a1-2)[Gal(a1-3)]Gal(b1-4)GlcNAc(b1-3)[Fuc(a1-2)[Gal(a1-3)]Gal(b1-4)GlcNAc(b1-6)]GalNAc
# Method in brief: as §1
# [18] = target: Fuc(a1-2)[Gal(a1-3)]Gal(b1-4)GlcNAc(b1-6)GalNAc
# Method in brief: as §1
# [19] = target: Fuc(a1-2)[Gal(a1-3)]Gal(b1-4)[Fuc(a1-3)]Glc
# Method in brief: as §1
# [20] = target: Fuc(a1-2)[Gal(a1-3)]Gal(b1-4)[Fuc(a1-3)]GlcNAc
# Method in brief: as §1
# [21] = target: Fuc(a1-2)[Gal(a1-3)]Gal(b1-4)[Fuc(a1-3)]GlcNAc(b1-3)GalNAc
# Method in brief: as §1
# [22] = target: Fuc(a1-2)[Gal(a1-4)]Gal(b1-4)GlcNAc
# Method in brief: as §1
# [23] = target: Fuc(a1-2)[GalNAc(a1-3)]Gal
# Method in brief: as §1
# [24] = target: Fuc(a1-2)[GalNAc(a1-3)]Gal(b1-3)GalNAc(a1-3)[Fuc(a1-2)]Gal(b1-4)GlcNAc
# Method in brief: as §1
# [25] = target: Fuc(a1-2)[GalNAc(a1-3)]Gal(b1-3)GalNAc(b1-3)Gal(a1-4)Gal(b1-4)Glc
# Method in brief: as §1
# [26] = target: Fuc(a1-2)[GalNAc(a1-3)]Gal(b1-3)GlcNAc
# Method in brief: as §1
# [27] = target: Fuc(a1-2)[GalNAc(a1-3)]Gal(b1-3)GlcNAc(b1-2)Man(a1-3)[Fuc(a1-2)[GalNAc(a1-3)]Gal(b1-3)GlcNAc(b1-2)Man(a1-6)]Man(b1-4)GlcNAc(b1-4)GlcNAc
# Method in brief: as §1
# [28] = target: Fuc(a1-2)[GalNAc(a1-3)]Gal(b1-3)GlcNAc(b1-2)Man(a1-3)[Fuc(a1-2)[GalNAc(a1-3)]Gal(b1-3)GlcNAc(b1-2)Man(a1-6)]Man(b1-4)GlcNAc(b1-4)[Fuc(a1-6)]GlcNAc
# Method in brief: as §1
# [29] = target: Fuc(a1-2)[GalNAc(a1-3)]Gal(b1-3)GlcNAc(b1-3)GalNAc
# Method in brief: as §1
# [30] = target: Fuc(a1-2)[GalNAc(a1-3)]Gal(b1-3)GlcNAc(b1-6)GalNAc
# Method in brief: as §1
# [31] = target: Fuc(a1-2)[GalNAc(a1-3)]Gal(b1-4)Glc
# Method in brief: as §1
# [32] = target: Fuc(a1-2)[GalNAc(a1-3)]Gal(b1-4)GlcNAc
# Method in brief: as §1
# [33] = target: Fuc(a1-2)[GalNAc(a1-3)]Gal(b1-4)GlcNAc(b1-2)Man
# Method in brief: as §1
# [34] = target: Fuc(a1-2)[GalNAc(a1-3)]Gal(b1-4)GlcNAc(b1-2)Man(a1-3)[Fuc(a1-2)[GalNAc(a1-3)]Gal(b1-4)GlcNAc(b1-2)Man(a1-6)]Man(b1-4)GlcNAc(b1-4)GlcNAc
# Method in brief: as §1
# [35] = target: Fuc(a1-2)[GalNAc(a1-3)]Gal(b1-4)GlcNAc(b1-2)Man(a1-3)[Fuc(a1-2)[GalNAc(a1-3)]Gal(b1-4)GlcNAc(b1-2)Man(a1-6)]Man(b1-4)GlcNAc(b1-4)[Fuc(a1-6)]GlcNAc
# Method in brief: as §1
# [36] = target: Fuc(a1-2)[GalNAc(a1-3)]Gal(b1-4)GlcNAc(b1-3)Gal(b1-4)GlcNAc
# Method in brief: as §1
# [37] = target: Fuc(a1-2)[GalNAc(a1-3)]Gal(b1-4)GlcNAc(b1-3)Gal(b1-4)GlcNAc(b1-3)Gal(b1-4)GlcNAc
# Method in brief: as §1
# [38] = target: Fuc(a1-2)[GalNAc(a1-3)]Gal(b1-4)GlcNAc(b1-3)GalNAc
# Method in brief: as §1
# [39] = target: Fuc(a1-2)[GalNAc(a1-3)]Gal(b1-4)GlcNAc(b1-3)[Fuc(a1-2)[GalNAc(a1-3)]Gal(b1-4)GlcNAc(b1-6)]GalNAc
# Method in brief: as §1
# [40] = target: Fuc(a1-2)[GalNAc(a1-3)]Gal(b1-4)GlcNAc(b1-6)GalNAc
# Method in brief: as §1
# [41] = target: Fuc(a1-2)[GalNAc(a1-3)]Gal(b1-4)[Fuc(a1-3)]GlcNAc
# Method in brief: as §1
# [42] = target: Fuc(a1-2)[GalNAc(a1-3)]Gal(b1-4)[Fuc(a1-3)]GlcNAc(b1-3)GalNAc
# Method in brief: as §1
# [43] = target: Fuc(a1-2)[GalNAc(a1-4)]Gal(b1-4)GlcNAc
# Method in brief: as §1
binder,measurement,setting,value
APVPVTKLVCDGDTYKCTAYLDFGDGRWVAQWDTNVFHTG [PhoSpL (Pholiota squarrosa)],glycan array binding signal (z-score),[1],-0.893
same,glycan array binding signal (z-score),[2],-0.201
same,glycan array binding signal (z-score),Fuc(a1-2)Gal6S(b1-4)Glc,-0.066
same,glycan array binding signal (z-score),[3],-0.035
same,glycan array binding signal (z-score),Fuc(a1-2)[Gal(a1-3)]Gal,-0.213
same,glycan array binding signal (z-score),[4],0.048
same,glycan array binding signal (z-score),[5],-0.214
same,glycan array binding signal (z-score),[6],-0.165
same,glycan array binding signal (z-score),[7],-0.043
same,glycan array binding signal (z-score),[8],1.13
same,glycan array binding signal (z-score),[9],-0.092
same,glycan array binding signal (z-score),[10],-0.031
same,glycan array binding signal (z-score),[11],0.496
same,glycan array binding signal (z-score),[12],-0.344
same,glycan array binding signal (z-score),[13],0.428
same,glycan array binding signal (z-score),[14],-0.015
same,glycan array binding signal (z-score),[15],1.36
same,glycan array binding signal (z-score),[16],-0.278
same,glycan array binding signal (z-score),[17],-0.188
same,glycan array binding signal (z-score),[18],0.079
same,glycan array binding signal (z-score),[19],0.001
same,glycan array binding signal (z-score),[20],0.046
same,glycan array binding signal (z-score),[21],-0.154
same,glycan array binding signal (z-score),[22],0.637
same,glycan array binding signal (z-score),[23],-0.032
same,glycan array binding signal (z-score),[24],-0.051
same,glycan array binding signal (z-score),[25],-0.22
same,glycan array binding signal (z-score),[26],0.14
same,glycan array binding signal (z-score),[27],0.171
same,glycan array binding signal (z-score),[28],0.538
same,glycan array binding signal (z-score),[29],0.435
same,glycan array binding signal (z-score),[30],-0.402
same,glycan array binding signal (z-score),[31],-0.087
same,glycan array binding signal (z-score),[32],-0.101
same,glycan array binding signal (z-score),[33],0.067
same,glycan array binding signal (z-score),[34],0.183
same,glycan array binding signal (z-score),[35],-0.095
same,glycan array binding signal (z-score),[36],-0.362
same,glycan array binding signal (z-score),[37],-0.28
same,glycan array binding signal (z-score),[38],0.044
same,glycan array binding signal (z-score),[39],-0.173
same,glycan array binding signal (z-score),[40],-0.257
same,glycan array binding signal (z-score),[41],-0.019
same,glycan array binding signal (z-score),[42],0.243
same,glycan array binding signal (z-score),[43],0.072
